# Test results published in the supplement of paper PMC8728848.
# This is one part of the list.
# Columns and labels:
# Assay in all cases: glycan array binding signal (z-score within array); higher = stronger binding
# Settings in all cases: glycan notation: IUPAC condensed, linker removed; mutation: H262T
# [1] = target: Gal(b1-4)GlcNAc(b1-2)Man(a1-6)[GlcNAc(b1-2)Man(a1-3)]Man(b1-4)GlcNAc(b1-4)GlcNAc
# Outline: (§1)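 From the Consortium for Functional Glycomics database, 3228 arrays were curated, keeping only those whose protein sequence was available. Binding is given as a within-array Z-score averaged across arrays sharing a protein sequence and across linkers. Negative Z-scores can be read as non-binding.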
# [2] = target: Gal(b1-4)GlcNAc(b1-2)Man(a1-6)[Man(a1-3)]Man(b1-4)GlcNAc(b1-4)GlcNAc
# Outline: as §1
# [3] = target: Gal(b1-4)GlcNAc(b1-2)[Gal(b1-4)GlcNAc(b1-4)]Man(a1-3)[Gal(b1-4)GlcNAc(b1-2)Man(a1-6)]Man(b1-4)GlcNAc(b1-4)GlcNAc
# Outline: as §1
# [4] = target: Gal(b1-4)GlcNAc(b1-2)[Gal(b1-4)GlcNAc(b1-4)]Man(a1-3)[Gal(b1-4)GlcNAc(b1-2)[Gal(b1-4)GlcNAc(b1-6)]Man(a1-6)]Man(b1-4)GlcNAc(b1-4)GlcNAc
# Outline: as §1
# [5] = target: Gal(b1-4)GlcNAc(b1-2)[Gal(b1-4)GlcNAc(b1-4)]Man(a1-3)[GlcNAc(b1-4)][Gal(b1-4)GlcNAc(b1-2)Man(a1-6)]Man(b1-4)GlcNAc(b1-4)GlcNAc
# Outline: as §1
# [6] = target: Gal(b1-4)GlcNAc(b1-2)[Gal(b1-4)GlcNAc(b1-4)]Man(a1-3)[GlcNAc(b1-4)][Gal(b1-4)GlcNAc(b1-2)[Gal(b1-4)GlcNAc(b1-6)]Man(a1-6)]Man(b1-4)GlcNAc(b1-4)GlcNAc
# Outline: as §1
# [7] = target: Gal(b1-4)GlcNAc(b1-2)[Gal(b1-4)GlcNAc(b1-6)]Man(a1-6)[Gal(b1-4)GlcNAc(b1-2)Man(a1-3)]Man(b1-4)GlcNAc(b1-4)GlcNAc
# Outline: as §1
# [8] = target: Gal(b1-4)GlcNAc(b1-2)[Gal(b1-4)GlcNAc(b1-6)]Man(a1-6)[Gal(b1-4)GlcNAc(b1-2)Man(a1-3)]Man(b1-4)GlcNAc(b1-4)[Fuc(a1-6)]GlcNAc
# Outline: as §1
# [9] = target: Gal(b1-4)GlcNAc(b1-2)[Gal(b1-4)GlcNAc(b1-6)]Man(a1-6)[GlcNAc(b1-4)][Gal(b1-4)GlcNAc(b1-2)Man(a1-3)]Man(b1-4)GlcNAc(b1-4)GlcNAc
# Outline: as §1
# [10] = target: Gal(b1-4)GlcNAc(b1-2)[Gal(b1-4)GlcNAc(b1-6)]Man(a1-6)[GlcNAc(b1-4)][Gal(b1-4)GlcNAc(b1-2)[Gal(b1-4)GlcNAc(b1-4)]Man(a1-3)]Man(b1-4)GlcNAc(b1-4)[Fuc(a1-6)]GlcNAc
# Outline: as §1
# [11] = target: Gal(b1-4)GlcNAc(b1-3)Gal(b1-3)GalNAc
# Outline: as §1
# [12] = target: Gal(b1-4)GlcNAc(b1-3)Gal(b1-3)GlcNAc
# Outline: as §1
# [13] = target: Gal(b1-4)GlcNAc(b1-3)Gal(b1-4)Glc
# Outline: as §1
# [14] = target: Gal(b1-4)GlcNAc(b1-3)Gal(b1-4)GlcNAc
# Outline: as §1
# [15] = target: Gal(b1-4)GlcNAc(b1-3)Gal(b1-4)GlcNAc(b1-2)Man(a1-3)[Gal(b1-4)GlcNAc(b1-3)Gal(b1-4)GlcNAc(b1-2)Man(a1-6)]Man(b1-4)GlcNAc(b1-4)GlcNAc
# Outline: as §1
# [16] = target: Gal(b1-4)GlcNAc(b1-3)Gal(b1-4)GlcNAc(b1-2)Man(a1-3)[Gal(b1-4)GlcNAc(b1-3)Gal(b1-4)GlcNAc(b1-2)Man(a1-6)]Man(b1-4)GlcNAc(b1-4)[Fuc(a1-6)]GlcNAc
# Outline: as §1
# [17] = target: Gal(b1-4)GlcNAc(b1-3)Gal(b1-4)GlcNAc(b1-2)[Gal(b1-4)GlcNAc(b1-3)Gal(b1-4)GlcNAc(b1-6)]Man(a1-6)[Gal(b1-4)GlcNAc(b1-3)Gal(b1-4)GlcNAc(b1-2)Man(a1-3)]Man(b1-4)GlcNAc(b1-4)GlcNAc
# Outline: as §1
# [18] = target: Gal(b1-4)GlcNAc(b1-3)Gal(b1-4)GlcNAc(b1-2)[Gal(b1-4)GlcNAc(b1-3)Gal(b1-4)GlcNAc(b1-6)]Man(a1-6)[Gal(b1-4)GlcNAc(b1-3)Gal(b1-4)GlcNAc(b1-2)Man(a1-3)]Man(b1-4)GlcNAc(b1-4)[Fuc(a1-6)]GlcNAc
# Outline: as §1
# [19] = target: Gal(b1-4)GlcNAc(b1-3)Gal(b1-4)GlcNAc(b1-3)Gal(b1-4)GlcNAc
# Outline: as §1
# [20] = target: Gal(b1-4)GlcNAc(b1-3)Gal(b1-4)GlcNAc(b1-3)Gal(b1-4)GlcNAc(b1-2)Man(a1-3)[Gal(b1-4)GlcNAc(b1-3)Gal(b1-4)GlcNAc(b1-3)Gal(b1-4)GlcNAc(b1-2)Man(a1-6)]Man(b1-4)GlcNAc(b1-4)GlcNAc
# Outline: as §1
# [21] = target: Gal(b1-4)GlcNAc(b1-3)Gal(b1-4)GlcNAc(b1-3)Gal(b1-4)GlcNAc(b1-2)Man(a1-3)[Gal(b1-4)GlcNAc(b1-3)Gal(b1-4)GlcNAc(b1-3)Gal(b1-4)GlcNAc(b1-2)Man(a1-6)]Man(b1-4)GlcNAc(b1-4)[Fuc(a1-6)]GlcNAc
# Outline: as §1
# [22] = target: Gal(b1-4)GlcNAc(b1-3)Gal(b1-4)GlcNAc(b1-3)Gal(b1-4)GlcNAc(b1-2)[Gal(b1-4)GlcNAc(b1-3)Gal(b1-4)GlcNAc(b1-3)Gal(b1-4)GlcNAc(b1-6)]Man(a1-6)[Gal(b1-4)GlcNAc(b1-3)Gal(b1-4)GlcNAc(b1-3)Gal(b1-4)GlcNAc(b1-2)Man(a1-3)]Man(b1-4)GlcNAc(b1-4)[Fuc(a1-6)]GlcNAc
# Outline: as §1
# [23] = target: Gal(b1-4)GlcNAc(b1-3)Gal(b1-4)GlcNAc(b1-3)Gal(b1-4)GlcNAc(b1-3)Gal(b1-4)GlcNAc(b1-2)Man(a1-3)[Gal(b1-4)GlcNAc(b1-3)Gal(b1-4)GlcNAc(b1-3)Gal(b1-4)GlcNAc(b1-3)Gal(b1-4)GlcNAc(b1-2)Man(a1-6)]Man(b1-4)GlcNAc(b1-4)GlcNAc
# Outline: as §1
# [24] = target: Gal(b1-4)GlcNAc(b1-3)Gal(b1-4)GlcNAc(b1-3)Gal(b1-4)GlcNAc(b1-3)Gal(b1-4)GlcNAc(b1-2)Man(a1-3)[Gal(b1-4)GlcNAc(b1-3)Gal(b1-4)GlcNAc(b1-3)Gal(b1-4)GlcNAc(b1-3)Gal(b1-4)GlcNAc(b1-2)Man(a1-6)]Man(b1-4)GlcNAc(b1-4)[Fuc(a1-6)]GlcNAc
# Outline: as §1
# [25] = target: Gal(b1-4)GlcNAc(b1-3)Gal(b1-4)GlcNAc(b1-3)Gal(b1-4)GlcNAc(b1-3)Gal(b1-4)GlcNAc(b1-2)[Gal(b1-4)GlcNAc(b1-3)Gal(b1-4)GlcNAc(b1-3)Gal(b1-4)GlcNAc(b1-3)Gal(b1-4)GlcNAc(b1-6)]Man(a1-6)[Gal(b1-4)GlcNAc(b1-3)Gal(b1-4)GlcNAc(b1-3)Gal(b1-4)GlcNAc(b1-3)Gal(b1-4)GlcNAc(b1-2)Man(a1-3)]Man(b1-4)GlcNAc(b1-4)[Fuc(a1-6)]GlcNAc
# Outline: as §1
# [26] = target: Gal(b1-4)GlcNAc(b1-3)Gal(b1-4)GlcNAc(b1-3)Gal(b1-4)GlcNAc(b1-3)Gal(b1-4)GlcNAc(b1-3)Gal(b1-4)GlcNAc(b1-2)Man(a1-3)[Gal(b1-4)GlcNAc(b1-3)Gal(b1-4)GlcNAc(b1-3)Gal(b1-4)GlcNAc(b1-3)Gal(b1-4)GlcNAc(b1-3)Gal(b1-4)GlcNAc(b1-2)Man(a1-6)]Man(b1-4)GlcNAc(b1-4)GlcNAc
# Outline: as §1
# [27] = target: Gal(b1-4)GlcNAc(b1-3)Gal(b1-4)GlcNAc(b1-3)Gal(b1-4)GlcNAc(b1-3)Gal(b1-4)GlcNAc(b1-3)Gal(b1-4)GlcNAc(b1-2)Man(a1-3)[Gal(b1-4)GlcNAc(b1-3)Gal(b1-4)GlcNAc(b1-3)Gal(b1-4)GlcNAc(b1-3)Gal(b1-4)GlcNAc(b1-3)Gal(b1-4)GlcNAc(b1-2)Man(a1-6)]Man(b1-4)GlcNAc(b1-4)[Fuc(a1-6)]GlcNAc
# Outline: as §1
# [28] = target: Gal(b1-4)GlcNAc(b1-3)Gal(b1-4)GlcNAc(b1-3)Gal(b1-4)GlcNAc(b1-3)Gal(b1-4)GlcNAc(b1-3)Gal(b1-4)GlcNAc(b1-2)[Gal(b1-4)GlcNAc(b1-3)Gal(b1-4)GlcNAc(b1-3)Gal(b1-4)GlcNAc(b1-3)Gal(b1-4)GlcNAc(b1-3)Gal(b1-4)GlcNAc(b1-6)]Man(a1-6)[Gal(b1-4)GlcNAc(b1-3)Gal(b1-4)GlcNAc(b1-3)Gal(b1-4)GlcNAc(b1-3)Gal(b1-4)GlcNAc(b1-3)Gal(b1-4)GlcNAc(b1-2)Man(a1-3)]Man(b1-4)GlcNAc(b1-4)[Fuc(a1-6)]GlcNAc
# Outline: as §1
# [29] = target: Gal(b1-4)GlcNAc(b1-3)Gal(b1-4)GlcNAc(b1-3)Gal(b1-4)GlcNAc(b1-3)Gal(b1-4)GlcNAc(b1-3)Gal(b1-4)GlcNAc(b1-3)Gal(b1-4)GlcNAc(b1-2)Man(a1-3)[Gal(b1-4)GlcNAc(b1-3)Gal(b1-4)GlcNAc(b1-3)Gal(b1-4)GlcNAc(b1-3)Gal(b1-4)GlcNAc(b1-3)Gal(b1-4)GlcNAc(b1-3)Gal(b1-4)GlcNAc(b1-2)Man(a1-6)]Man(b1-4)GlcNAc(b1-4)GlcNAc
# Outline: as §1
# [30] = target: Gal(b1-4)GlcNAc(b1-3)Gal(b1-4)GlcNAc(b1-3)GalNAc
# Outline: as §1
# [31] = target: Gal(b1-4)GlcNAc(b1-3)Gal(b1-4)GlcNAc(b1-3)[Gal(b1-4)GlcNAc(b1-3)Gal(b1-4)GlcNAc(b1-6)]GalNAc
# Outline: as §1
# [32] = target: Gal(b1-4)GlcNAc(b1-3)Gal(b1-4)GlcNAc(b1-6)[Gal(b1-3)]GalNAc
# Outline: as §1
# [33] = target: Gal(b1-4)GlcNAc(b1-3)Gal(b1-4)[Fuc(a1-3)]GlcNAc(b1-3)Gal(b1-4)[Fuc(a1-3)]GlcNAc
# Outline: as §1
# [34] = target: Gal(b1-4)GlcNAc(b1-3)GalNAc
# Outline: as §1
# [35] = target: Gal(b1-4)GlcNAc(b1-3)[Fuc(a1-3)GlcNAc(b1-6)]Gal(b1-4)Glc
# Outline: as §1
# [36] = target: Gal(b1-4)GlcNAc(b1-3)[Gal(b1-4)GlcNAc(b1-6)]Gal(b1-4)GlcNAc
# Outline: as §1
# [37] = target: Gal(b1-4)GlcNAc(b1-3)[GlcNAc(b1-6)]Gal(b1-4)GlcNAc
# Outline: as §1
binder,measurement,setting,value
MGL6A (Homo sapiens) (protein) MTRTYENFQYLENKVKVQGFKNGPLPLQSLLQRLCSGPCHLLLSLGLGLLLLVIICVVGFQNSKFQRDLVTLRTDFSNFTSNTVAEIQALTSQGSSLEETIASLKAEVEGFKQERQAVHSEMLLRVQQLVQDLKKLTCQVATLNNNGEEASTEGTCCPVNWVEHQDSCYWFSHSGMSWAEAEKYCQLKNAHLVVINSREEQNFVQKYLGSAYTWMGLSDPEGAWKWVDGTDYATGFQNWKPGQPDDWQGHGLGGGEDCAHFTPDGRWNDDVCQRPYHWVCEAGLGQTSQESH,glycan array binding signal (z-score),[1],-0.175
same,glycan array binding signal (z-score),[2],-0.167
same,glycan array binding signal (z-score),[3],-0.174
same,glycan array binding signal (z-score),[4],-0.178
same,glycan array binding signal (z-score),[5],-0.174
same,glycan array binding signal (z-score),[6],-0.197
same,glycan array binding signal (z-score),[7],-0.177
same,glycan array binding signal (z-score),[8],-0.172
same,glycan array binding signal (z-score),[9],-0.177
same,glycan array binding signal (z-score),[10],-0.172
same,glycan array binding signal (z-score),[11],-0.181
same,glycan array binding signal (z-score),[12],-0.174
same,glycan array binding signal (z-score),[13],-0.172
same,glycan array binding signal (z-score),[14],-0.176
same,glycan array binding signal (z-score),[15],-0.172
same,glycan array binding signal (z-score),[16],-0.171
same,glycan array binding signal (z-score),[17],-0.157
same,glycan array binding signal (z-score),[18],-0.158
same,glycan array binding signal (z-score),[19],-0.175
same,glycan array binding signal (z-score),[20],-0.169
same,glycan array binding signal (z-score),[21],-0.163
same,glycan array binding signal (z-score),[22],-0.162
same,glycan array binding signal (z-score),[23],-0.158
same,glycan array binding signal (z-score),[24],-0.161
same,glycan array binding signal (z-score),[25],-0.159
same,glycan array binding signal (z-score),[26],-0.159
same,glycan array binding signal (z-score),[27],-0.128
same,glycan array binding signal (z-score),[28],-0.14
same,glycan array binding signal (z-score),[29],-0.159
same,glycan array binding signal (z-score),[30],-0.172
same,glycan array binding signal (z-score),[31],-0.169
same,glycan array binding signal (z-score),[32],-0.174
same,glycan array binding signal (z-score),[33],-0.173
same,glycan array binding signal (z-score),[34],-0.177
same,glycan array binding signal (z-score),[35],-0.174
same,glycan array binding signal (z-score),[36],-0.165
same,glycan array binding signal (z-score),[37],-0.176
